IC50 data for four compounds are collected here from US20250282724A1, “BENZOTRIAZOLE COMPOUND” (DAIICHI SANKYO COMPANY, LIMITED, priority 2022, published 2025).

Each structure is given as a SMILES string.

This test has as its target GST-fused human Keap1 (amino acid residues: 325-642) protein (Homo sapiens, UniProt Q14145). In words: FP assay (in vitro): inhibition of binding between Nrf2 and Keap1 by fluorescence polarization. Particulars: 20 nM GST-fused human Keap1, 10 nM FITC-labeled Nrf2 peptide, 2 hr at room temperature. On the technique in general: In fluorescence polarisation assays a small probe gives low polarisation when free and higher when bound to something large.
`CC[C@@H]1CN(Cc2cc([C@@H](CC(=O)O)c3ccc4c(nnn4C)c3C)cc3ccsc23)C(C)c2nc(O)ccc2O1` (relative stereo) [Example 79, (3R)-3-(1,4-Dimethyl-1H-benzotriazol-5-yl)-3-(7-{[(2R,5R*)-2-ethyl-7-hydroxy-5-methyl-2,3-dihydropyrido[2,3-f][1,4]oxazepin-4(5H)-yl]methyl}-1-benzothiophen-5-yl)propanoic acid] showed an IC50 of 30 to 100 nM.

`CC[C@@H]1CN(Cc2cc([C@@H](CC(=O)O)c3cnc4c(nnn4C)c3C)cc3ccsc23)C(C)c2nc(O)ccc2O1` (single isomer, unassigned) [Example 81, (3R)-3-(3,7-Dimethyl-3H-[1,2,3]triazolo[4,5-b]pyridin-6-yl)-3-(7-{[(2R,5S*)-2-ethyl-7-hydroxy-5-methyl-2,3-dihydropyrido[2,3-f][1,4]oxazepin-4(5H)-yl]methyl}-1-benzothiophen-5-yl)propanoic acid] displayed an IC50 of 10 to 30 nM.

Regarding `CC[C@@H]1CN(Cc2cc([C@H](CC(=O)O)c3ccc4c(nnn4C)c3C)cc3ccsc23)[C@@H](C)c2ncccc2O1` [Example 62, (3S)-3-(1,4-Dimethyl-1H-benzotriazol-5-yl)-3-(7-{[(2R,5S)-2-ethyl-5-methyl-2,3-dihydropyrido[2,3-f][1,4]oxazepin-4(5H)-yl]methyl}-1-benzothiophen-5-yl)propanoic acid], the IC50 fell in the range of 10 to 30 nM. `Cc1c([C@H](CC(=O)O)c2cc(CN3CC4(CC4)Oc4ccc(O)nc4C3C)c3sccc3c2)ccc2c1nnn2C` (single isomer, unassigned) [Example 87, (3R)-3-(1,4-Dimethyl-1H-benzotriazol-5-yl)-3-(7-{[(5'S*)-7′-hydroxy-5′-methyl-3′H-spiro[cyclopropane-1,2′-pyrido[2,3-f][1,4]oxazepin]-4′ (5′ H)-yl]methyl}-1-benzothiophen-5-yl)propanoic acid] gave an IC50 of at most 10 nM.

Usually IC50 stands for the point on the concentration scale where inhibition reaches its midpoint. A higher IC50 goes with lower potency.
